# Measured values published in the supplement of paper PMC12217912.
# Some of the results follow. The full chains were built here from the parent and the listed change. Values near 0.05 are background.
# B1: TEV protease; numbered along this chain (parent)
# chain: MGESLFKGPRDYNPISSSICHLTNESDGHTTSLYGIGFGPFIITNKHLFRRNNGTLVVQSLHGVFKVKDTTTLQQHLVDGRDMIIIRMPKDFPPFPQKLKFREPQREERICLVTTNFQTKSMSSMVSDTSCTFPSGDGIFWKHWIQTKDGQCGSPLVSTRDGFIVGIHSASNFTNTNNYFTSVPKNFMELLTNQEAQQWVSGWRLNADSVLWGGHKVFMVKPEEPFQPVKEATQL
# Variants of: B1
# Assay: raw area under fraction-flipped curve 0-4 h after induction (AUC4h, not background-subtracted), DNA-recorder readout of cleavage of the substrate (dimensionless); higher = more cleavage of the substrate by the protease variant
# Conditions: temperature: 34 °C; time window: 0-4 h after rhamnose induction
# Description: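 In vivo DNA recorder in E. coli TOP10(DE3) ΔrhaA at 34 °C. Each TEVp single-site mutant (parent TEVp 0) is paired with a single-site variant of the 7-mer TEVs (canonical ENLYFQ|S). The substrate sits between flexible linkers in a Bxb1-sfGFP-TEVs-SsrA fusion, so cleavage stabilises Bxb1 and speeds flipping of a recombination array, read by NGS. The value is the raw area under the fraction-flipped curve over 0-4 h after rhamnose induction (AUC4h), with ≥20 reads per time point. It is not background-subtracted; inactive controls average about 0.047.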
# 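Further: Bxb1 expression induced with 0.2% (w/v) L-rhamnose at OD600 near 0.5, cultures sampled hourly, flipped fraction per protease–substrate barcode pair counted by paired-end Illumina sequencing.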
Variant,area with substrate ANLYFQS,area with substrate CNLYFQS,area with substrate DNLYFQS,area with substrate GNLYFQS,area with substrate HNLYFQS,area with substrate LNLYFQS,area with substrate MNLYFQS,area with substrate PNLYFQS,area with substrate RNLYFQS,area with substrate TNLYFQS,area with substrate VNLYFQS,area with substrate WNLYFQS,area with substrate YNLYFQS,area with substrate INLYFQS,area with substrate KNLYFQS,area with substrate NNLYFQS,area with substrate QNLYFQS,area with substrate SNLYFQS,area with substrate FNLYFQS
MGESLFKGPRDYNPISSSICHLTNESDGHTTSLYGIGFGPFIITNKHLFRRNNGTLVVQSLHGVFKVKDTTTLQQHLVDGRDMIIIRMPKDFPPFPQKLKFREPQRETRICLVTTNFQTKSMSSMVSDTSCTFPSGDGIFWKHWIQTKDGQCGSPLVSTRDGFIVGIHSASNFTNTNNYFTSVPKNFMELLTNQEAQQWVSGWRLNADSVLWGGHKVFMVKPEEPFQPVKEATQL [E108T],0.0468,0.0606,0.0816,0.0375,0.0609,0.0474,0.0549,0.0471,0.0437,0.0645,0.0724,0.049,0.047,,,,,,
MGESLFKGPRDSNPISSSICHLTNESDGHTTSLYGIGFGPFIITNKHLFRRNNGTLVVQSLHGVFKVKDTTTLQQHLVDGRDMIIIRMPKDFPPFPQKLKFREPQREERICLVTTNFQTKSMSSMVSDTSCTFPSGDGIFWKHWIQTKDGQCGSPLVSTRDGFIVGIHSASNFTNTNNYFTSVPKNFMELLTNQEAQQWVSGWRLNADSVLWGGHKVFMVKPEEPFQPVKEATQL [Y12S],0.0625,0.0662,0.0699,0.0648,0.0608,0.0591,0.065,0.0655,,0.0692,0.0628,0.0635,0.0565,0.0705,0.0061,0.0558,,,
MGESLFKGPRDYNPISSSICHLTNESDGHTTSLYGIGFGPFIITNKHLFRRNNGTLVVQSLHGVFKVKDTTTLQQHLVDGRDMIIIRMPKDFPPFPQKLKFREPQREERICLVTTNFQTKSMSSMVSDTSCTFPSGDGIFWKHWIQTKDGQCGSPLVSTRDGFIVGIHSASNFTCTNNYFTSVPKNFMELLTNQEAQQWVSGWRLNADSVLWGGHKVFMVKPEEPFQPVKEATQL [N175C],0.0455,0.0636,0.0631,0.0692,0.0598,0.0646,,0.0564,,0.0548,0.0638,0.0669,0.0611,0.0602,,0.0489,0.0678,0.0658,
MGESLFKGPRDYNPISSSICHLTNESDGHTTSLYGIGFGPFIITNKHLFRRNNGTLVVQSLHGVFKVKDTTTLQQHLVDGRDMIIIRMPKDFPPFPQKLKFREPQREERICLVTTNFQTKSMSSMVSDTSCTFPSGDGIFWKHWIQTKDGQCGSPLASTRDGFIVGIHSASNFTNTNNYFTSVPKNFMELLTNQEAQQWVSGWRLNADSVLWGGHKVFMVKPEEPFQPVKEATQL [V157A],0.0706,0.0632,0.0582,,,0.0576,,0.0536,,0.066,0.0583,0.0658,,0.0075,0.0654,0.0983,0.0742,0.0593,
MGESLFKGPRDYNPISSSICHLTNESDGHTTSLYGIGFGPFIITNKHLFRRNNGTLVVQSLHGVFKVKDTTTLQQHLVDGRDMIIIRMPKDFPPFPQKLKFREPQREERICLVTTNFQTKSMSSNVSDTSCTFPSGDGIFWKHWIQTKDGQCGSPLVSTRDGFIVGIHSASNFTNTNNYFTSVPKNFMELLTNQEAQQWVSGWRLNADSVLWGGHKVFMVKPEEPFQPVKEATQL [M125N],0.0526,0.0699,0.0827,0.0797,0.0654,0.052,0.074,0.0619,0.0539,0.0618,,0.0643,0.0443,0.0406,0.0703,0.0642,,0.0592,0.0673
MGESLFKGPRDYNPISSSICHVTNESDGHTTSLYGIGFGPFIITNKHLFRRNNGTLVVQSLHGVFKVKDTTTLQQHLVDGRDMIIIRMPKDFPPFPQKLKFREPQREERICLVTTNFQTKSMSSMVSDTSCTFPSGDGIFWKHWIQTKDGQCGSPLVSTRDGFIVGIHSASNFTNTNNYFTSVPKNFMELLTNQEAQQWVSGWRLNADSVLWGGHKVFMVKPEEPFQPVKEATQL [L22V],0.0408,0.0573,0.0697,0.0666,0.05,0.0644,0.0612,0.0519,,0.0666,0.0696,0.0522,0.0567,0.0649,0.0506,,0.0657,0.0656,0.0474
MGESLFKGPRDYNPISSSICHLTNESDGHTTSLYGIGFGPFIITNKHLFRRNNGTLVVQSLHYVFKVKDTTTLQQHLVDGRDMIIIRMPKDFPPFPQKLKFREPQREERICLVTTNFQTKSMSSMVSDTSCTFPSGDGIFWKHWIQTKDGQCGSPLVSTRDGFIVGIHSASNFTNTNNYFTSVPKNFMELLTNQEAQQWVSGWRLNADSVLWGGHKVFMVKPEEPFQPVKEATQL [G63Y],0.0496,0.0511,0.077,0.0289,0.0438,,0.0628,0.054,0.0728,0.0606,,0.0491,0.0524,,,,0.0662,0.0533,0.0451
MGESLFKGPRDYNPISSSICHLINESDGHTTSLYGIGFGPFIITNKHLFRRNNGTLVVQSLHGVFKVKDTTTLQQHLVDGRDMIIIRMPKDFPPFPQKLKFREPQREERICLVTTNFQTKSMSSMVSDTSCTFPSGDGIFWKHWIQTKDGQCGSPLVSTRDGFIVGIHSASNFTNTNNYFTSVPKNFMELLTNQEAQQWVSGWRLNADSVLWGGHKVFMVKPEEPFQPVKEATQL [T23I],0.0708,0.0947,0.0956,,0.0438,0.0829,0.0767,0.0735,,0.0584,,0.101,,0.0456,0.0114,,0.071,0.0769,
MGESLFKGPRDYNPISSSICHLTNESDGHTTSLYGIGFGPFIITNKHLFRRNNGTLVVQSLHGVFKVKDTTTLQQHLVDGRDMIIIRMPKDFPPFPQKLKFREPQREERICLVTTNFQTKSMSSMVSDTSCTFPSGDGIFWKHWIQTKDGQCGSPLVSTRDGFIVGIHSASNFTNTNNYFTSVPKNFMELLTNQEAQQWVSGWRLNADSVLWGGHKVFMVKSEEPFQPVKEATQL [P222S],0.0587,0.052,0.0489,,0.0667,0.0693,0.0661,0.0698,0.0596,0.057,,0.0573,,0.0473,,,0.0648,0.0583,
